According to PubChem BioAssay AID493208 (National Center for Advancing Translational Sciences (NCATS), 2011):
About 340 (0.77%) of roughly 44,000 compounds were called active. Not shown: some 5% with an inconclusive outcome. The call rests on the fitted dose curve; in most records, active means well fitted inhibition curve with a large enough effect; inconclusive means small, poorly fitted or top-dose-only effect; inactive means flat fitted curve, though single readings scatter. This is one part of the list.

test: Acumen qHTS Assay for Inhibitors of the mTORC1 Signaling Pathway in MEF (Tsc2-/-, p53-/-) Cells: Sytravon; conditions: phospho-rpS6 immunofluorescence/PI, 24 h; series mostly up to 38.3 µM; activity change, negative = inhibition: at the top concentration;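 further: plate controls were DMSO for no effect and rapamycin for full effect; nearly all actives have a fitted effect of over 50% in size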
Procedure, shortened: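 Immunofluorescence of rpS6 phosphorylation in Tsc2-/-, p53-/- MEFs after 24 h compound exposure, normalized to propidium iodide signal. Activity is expressed as % positive cells, thresholded with 7.5 nM rapamycin.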

Activity change, negative = inhibition, inactive:
CCCCCN1C(C(=O)c2ccccc2)=C(NC(=O)c2ccccc2Cl)c2ccccc2S1(=O)=O -1.63%, COc1ccc(CCNC(=O)c2ccc3c(c2)N(Cc2ccc(Cl)cc2)CCS3)c(OC)c1 -17.7%, COC(=O)c1c(NC(=O)COc2cc(C)ccc2C(C)C)sc2c1CCC(C)C2 (stereo unspecified) 8.57%, CC(=O)c1ccc(N2CCN(S(=O)(=O)c3ccc(-c4cc(C)no4)s3)CC2)cc1 6.5%, Cc1cc(C)c(S(=O)(=O)n2cnc(C)c2)c(C)c1 -1.82%, COc1ccc(-c2nc3n(n2)C(=O)CC(c2ccc(Cl)cc2)S3)cc1 (stereo unspecified) 1.25%, Cc1ccc(-c2ccc(=O)n(CC(=O)NCc3ccc(F)cc3)n2)cc1 -9.36%, CCC(C)NC(=O)C1CCC(CNS(=O)(=O)c2ccc(Cl)cc2)CC1 (stereo unspecified) 1.66%, CCOC(=O)C1CCN(S(=O)(=O)c2ccc3c(c2)NC(=O)C(C)C(=O)N3)CC1 (stereo unspecified) -28.5%, CCOC(=O)c1ccc(NC(=O)CC2NCCNC2=O)cc1 (stereo unspecified) 11.8%, CCn1c2ccccc2c2cc(NC(=O)COc3ccc(C)c(C)c3)ccc21 2.76%, COC(=O)c1ccc(NC(=O)C2CCN(C(=O)c3ccc(F)cc3)CC2)cc1 -26.9%, CC1=C(C(=O)Nc2ccccc2C)C(c2cccnc2)n2nc(SCc3ccccc3F)nc2N1 (stereo unspecified) 0%, CCOc1cc(C(=O)Nc2ccc(-c3nc4ncccc4o3)cc2C)cc(OCC)c1OCC -8.68%, CCS(=O)(=O)CCSc1nc(-c2ccc(Br)cc2)cc(-c2ccccc2)c1C#N 3.14%, O=C(O)CCc1ccc(-c2ccccc2)n1CC(=O)Nc1ccccc1C(F)(F)F 6.36%, COc1ccccc1CNC(=O)CCCCn1c(=O)c2ccccc2n(CC(=O)Nc2cc(Cl)ccc2C)c1=O -19.5%, Cc1ccccc1Nc1nn2c(=O)c3ccc(C(=O)N4CCCC(C)C4)cc3nc2s1 (stereo unspecified) -6.25%, COc1ccc2c(c1)c1c(c(=O)n(-c3ccccc3C)c(=O)n1CC(=O)Nc1c(C)cccc1C)n2C 3.32%, O=c1c2[nH]c3ccccc3c2nc(SCc2cccc(F)c2)n1-c1ccccc1 -2.31%, Cc1ccc(NC(=O)CCC(=O)N2Cc3ccccc3Oc3ncccc32)cc1 1.43%, COc1ccc(NC(=O)Cn2c(SCc3ccc(C)cc3)nc3cccnc32)c(OC)c1 -3.88%, COc1cccc(OC)c1C(=O)Nc1ccc2c(c1)N(C(C)=O)CCC2 6.56%, O=C(CCc1ccccc1)NC1CC(=O)N(c2ccccc2)C1 (stereo unspecified) -3.86%, O=C1CC(c2ccc(Cl)cc2)Sc2nc(-c3ccc(F)cc3)nn21 (stereo unspecified) -9.39%, CCOc1ccc(CNS(=O)(=O)c2cc(-c3cc(C)no3)ccc2C)cc1OC 2.72%, COc1ccc(-c2cnc(C)o2)cc1S(=O)(=O)Nc1ccc(C)c(N(C)C)c1 0%, Cn1c(=O)[nH]c2cc(-c3noc(-c4ccc(F)cc4)n3)ccc21 -4.11%, CCn1c(=O)cc(SCC(=O)NCCc2ccc(OC)cc2OC)c2ccccc21 0.524%, COCCCNC(=O)CSc1nc(-c2ccccc2)[nH]c1-c1ccc(C)cc1 -7.98%, CCc1ccc(-n2c(=O)c3c4c(sc3n(CC(=O)NC(C)CC)c2=O)CCCC4)cc1 (stereo unspecified) -6.32%, CCCn1c(=O)c2sccc2n2c(CCCC(=O)Nc3cccc(CC)c3)nnc12 -5.73%, CCc1cnc2c(c1SCC(=O)Nc1ccc(C)cc1C)c(=O)n(C)c(=O)n2C -6.6%, CC(C)c1ccc(NC(=O)c2ccc(NC(=O)CCS(=O)(=O)c3cccs3)cc2)cc1 -7.24%, Cc1ccc(CCNc2nc3c(S(=O)(=O)c4ccc(C)cc4)nnn3c3ccsc23)cc1 -2.2%, Cc1ccc(-n2ncc3c(NCCCc4ccccc4)ncnc32)cc1C 7.87%, COc1cc(CNC(=O)c2cc3n(n2)CCCN(Cc2ccc(C)cc2)C3=O)cc(OC)c1OC 5.84%, Cc1ccc(-c2c3c(=O)n(C)c(=O)n(C)c3c3c(C(F)(F)F)nc4ccccc4n23)cc1 1.56%, Cc1c(NC(=O)c2sc3c([N+](=O)[O-])cccc3c2Cl)cccc1-c1nc2ccccc2o1 -1.81%, CCS(=O)(=O)N1CC(=O)N(c2cccc(C)c2C)C(C)(C(=O)NC2CCCCC2)C1 (stereo unspecified) 0.732%, CCOC(=O)c1[nH]c(C)c(CCC(=O)Nc2ccc(N(CC)CC)cc2C)c1C -18.3%, Cc1nc(-c2ccc(F)cc2)sc1CCNC(=O)c1ccco1 2.27%, CCc1ccc(CNC(=O)CCN2C(=O)COc3ccccc32)cc1 1.35%, Cc1cc(C)cc(NC(=O)Cn2nnc(C(=O)Nc3cc(C)cc(C)c3)c2N)c1 -14.6%, COc1cc(NC(=O)Cn2c(C)cc3ccccc3c2=O)cc(OC)c1OC -9.39%, COc1cc(OC)cc(C(=O)Nc2c(C(=O)Nc3ccc(F)cc3)oc3ccccc23)c1 0.311%, CCOC(=O)c1cc(-c2ccccc2)n(CCCC(=O)Nc2cccc(Cl)c2C)c1C 0.689%, CSc1ccc(CCNC(=O)C(C)n2c(C)c3cnn(-c4ccccc4)c(=O)c3c2C)cc1 (stereo unspecified) -0.373%, COC(=O)c1cc2oc(C)cc2n1CC(=O)Nc1ccc(C)cc1C -3.41%, O=C(Cn1c(=O)n(Cc2ccccc2)c(=O)c2oc3ccccc3c21)Nc1ccc(Cl)cc1 -1.22%, Cc1ccc(/C=C/c2onc(C)c2S(=O)(=O)N2CCC(C(=O)N3CCOc4ccccc43)CC2)cc1 -14.8%, CC(=O)Nc1cc(C(=O)NCc2ccc(F)cc2Cl)ccc1Sc1ccc(Cl)cc1 0%, Oc1ccc(Cl)cc1Nc1nc2ccccc2n2cnnc12 -2.33%, CCOC(=O)c1ccc(NC(=O)Cc2ccc(-n3c(CC)nc4cccnc43)cc2)cc1 -9.69%, O=C(CC(c1ccccc1)c1cc(Br)ccc1O)NCC1(c2ccccc2)CCCC1 (stereo unspecified) -13.1%, COc1ccccc1N(Cc1cc2cccc(C)c2[nH]c1=O)C(=O)c1cccc(Cl)c1 2.19%, NC(=O)c1cc(S(=O)(=O)N2CCCCC2)cs1 2.83%, COc1ccc(CCn2c3c(c(=O)[nH]c2=O)C(NC(=O)c2ccccc2)(C(F)(F)F)C(=O)N3)cc1OC (stereo unspecified) -0.542%, CCNC(=O)CC1C(=O)N(c2ccc(C)cc2)C(=O)N1Cc1ccc(C)cc1 (stereo unspecified) 1.12%, O=C(CCS(=O)(=O)c1ccc2c(c1)NC(=O)CO2)Nc1cccc(C(F)(F)F)c1 8.45%, CCn1cc(S(=O)(=O)c2cc(C)cc(C)c2)c(=O)c2cc(F)c(N3CCC(C)CC3)cc21 0.889%
